The source gives no read counts; variants with many changes may rest on few reads.
B1: LINE1-mini (parent)
chain: GGCAGAGCUCAACACAGCGUGGCAAAGUGGCUGUGGCUAGACUGCC

Variants of: B1
Assay: self-cleavage, relative activity (ratio to wild type); higher = more cleavage; in vitro, sequencing; the parent is a self-cleaving ribozyme

Row | Variant | self-cleavage
1 | U32A C37U G40U | 0.02
2 | G2U G17U G19C G27U G40A C42G G44C | 0.05
3 | C3U G7A U20A | 0.09
4 | C8A C10A C15G C31G | 0.08
5 | A6G C23G C31A | 0.01
6 | G7A G30A G33U | 0.04
7 | A24C U38A A39U G40U C46G | 0.02
8 | A6C C10A G19A A41G C46A | 0.05
9 | C15A G21C G35U | 0
10 | G5C C23A A25U A26G | 0.01
11 | G1U A4C A25U C46A | 0.03
12 | A11U U20A C23A U28A A39U U43C | 0
13 | C3U G5C U20A A26G U28G G33U A39U C45G | 0.01
14 | G5U C8U G27C C31U | 0.12
15 | C8U G33C C42A | 0.08
16 | U9C C13U G22U | 0.03
17 | U9A C10G G19A A24G U32C G35U | 0.02
18 | U20G G22C C37A | 0
19 | G7U C10U A25U | 0.05
20 | C3U G5U C10A A26C G29A | 0.04
21 | C23G G36A G40U C42G | 0.09
22 | C15U G30A U34A | 0.21
23 | A26U A39C G40C | 0.19
24 | A25G G36C A39C | 0

Row | Variant | self-cleavage
25 | G7U A11U A16U | 0.04
26 | G19A G22C G30U G44U | 0.1
27 | G7C C31G A41U | 0.07
28 | G5C G7U C8A C15A G35C G40C | 0.2
29 | A11U A12U G35U | 0.05
30 | A12U G35U A41C | 0.09
31 | A16C U20C G22A | 0.19
32 | C10A A16C C18U A26C | 0.03
33 | G1U A14G G33A | 0.05
34 | G5C C8G G17U C18U G22U C31U C46G | 0.03
35 | G1A G2U G5A A11U C23A G27A U32G | 0.01
36 | C10U G19A G22A | 0.82
37 | G5U A12G G19C C46A | 0.01
38 | C3G C13A C23A | 1.11
39 | G5A U9G A12C C13A G21C A26U C46A | 0.04
40 | U9A A16U U20G G35U U38A | 0.12
41 | G7U A24G A26C G27A G30C | 0.02
42 | U9C C10U U28A U38C | 0.02
43 | C13U G17U U34A A39C | 0.05
44 | A14U A26U A39C | 0.1
45 | U20G A26U U34G A41G | 0
46 | C3A C31A G33A | 0.34
47 | G7C A26G C37A C45U | 0.07
48 | C3A C8A C23G G36U | 0.4

Row | Variant | self-cleavage
49 | A16C A26C G27C U34G | 0.02
50 | C18U A24U C37U A39G | 0.03
51 | A16U G21A G44A | 0.04
52 | U20C A25C G35A | 0.04
53 | C18G U20A G36C | 0.08
54 | G7C C13A G22A G33C | 0.09
55 | C10A G36A U38C | 0.02
56 | C3U G5C G21U | 0.14
57 | G2U G7A A26U U32C | 0.07
58 | G7U C23U U32A | 0.11
59 | C18G C23A G29A | 1.4
60 | C13G C23U G29U | 0.28
61 | U9C G19A C23U C46A | 0.06
62 | C10G A11U G19A G33A | 0.02
63 | G1U A6C C15G A16C | 0.04
64 | G2C A6C C23A | 0.08
65 | G22A A26C G35C | 0.24
66 | A25C G33A G44A | 0.08
67 | A6C U9A C23G A41U | 0.09
68 | G7C A26C U28A | 0.03
69 | C10G A16U C23G U32A C42U U43G | 0.01
70 | G2A C13G A39U | 0.04
71 | G30A U32A G33U | 0.05
72 | C10A G33C G44U | 0.02

Row | Variant | self-cleavage
73 | A16C A24C A26C | 0.04
74 | A4U G7U G35U | 0.27
75 | C10G G21U G40C U43C C45U | 0
76 | G1U C10G A25U U34G | 0.02
77 | U28C G30C U34A G44A | 0.01
78 | C15U G27C U34G C42G C46A | 0.04
79 | G5U G7A C13U G19A U20A C37A A41C | 0.23
80 | C10A A16U A41C | 0.02
81 | A6G C8G G35U G44A | 0.03
82 | G2U A24U G40A G44U | 0.02
83 | A4G C15G C18A U28A G40U A41U | 0.07
84 | C3A G5U C23A | 0.35
85 | C3A G27U C31A | 0.16
86 | G1U G2A C13A A39C | 0.43
87 | A6G C10A G40C | 0.02
88 | A6G C8A G36A | 0.05
89 | G5C C10A C31A G40A | 0
90 | C15U G17A A24U A26C | 0.07
91 | C13G G17U A41C C46A | 0.02
92 | C10U A16U C18A C23A G27A C37U A41G | 0.01
93 | G5U G27A G35U C37A | 0.07
94 | G30U C31G G35C | 0.08
95 | A4U G7U G36U G44A | 0.31
96 | G22C A24G U32A G35A | 0.05

Row | Variant | self-cleavage
97 | C10G A11G G22A C31A C45G | 0.01
98 | G2A C8G A12G C18A G22C | 0.05
99 | C15U A16G G35C A41U | 0.09
100 | G19A G30A U43C | 0.71
101 | C3U A11G C15U A26U | 0.01
102 | G1U G7C U38C | 0.09
103 | G17A U20C A26C G29U U38C A39C | 0.05
104 | G2C A24G C31A C37A | 0.05
105 | C15U C31U U34C | 0.01
106 | C18A G19C A24G U28C C37A | 0.02
107 | A24U C42G C46A | 0.03
108 | A14U G36U G44C | 0.04
109 | G19U A25C U28G | 0.5
110 | G2A A4G C31U C37A A39G C42U | 0.14
111 | U9C A26G G33A | 0.01
112 | C13A U28C U34C G40U | 0.06
113 | G7A A24U U38A | 0.07
114 | A11C G17U C46A | 0.01
115 | G35C C37A A39U | 0.08
116 | C13U U20A G35U C42A | 0.01
117 | C15A G33C A41G C45G | 0.02
118 | G36U A39U G44U | 0.03
119 | C15A C31A C37G A39U | 0.03
120 | C15G G19A U43C | 0.02

Row | Variant | self-cleavage
121 | C10A G19U C37G | 0.01
122 | A16U U34G G36C | 0.03
123 | G17A C31A U38G | 0.03
124 | C3U G5A C18U G27U G36A G40C | 0.13
125 | A6U A11G U38G | 0.01
126 | A12C C31G G40C | 0.02
127 | C3G C13A C45A | 0.09
128 | G17C G21U U38A | 0.33
129 | C3A U32A U34G | 0.07
130 | G19U G36U C45U | 0.07
131 | A14G G17A G22A | 0.09
132 | C8A A12G A16G G22C C46U | 0.09
133 | A11G G44A C46U | 0.03
134 | C3A C18U G35C | 0.11
135 | C23U A25U G35A C42A U43A C46U | 0.01
136 | G19A U32A G36U G40A | 0.04
137 | G2U U38G G40A | 0.02
138 | C8G G19U G21U G27A | 0.08
139 | G17A G29U G30U U34C C45U | 0.02
140 | C15U A16G G36C A39U | 0.02
141 | A14C G19C U20C C23A | 0.03
142 | G5C C8A G29C | 0.09
143 | C8G A25C A39C | 0.02
144 | C10A G36A U38G G44U | 0.03

Row | Variant | self-cleavage
145 | C3G U32C C37U | 0.11
146 | A6C G22C G27U | 0.04
147 | G19C A25C U38C | 0.09
148 | G22U U34C A39U | 0.72
149 | G7C C13A C45U | 0.13
150 | C3A G7U C8A G27A G33C | 0.3
151 | A11C C15G G21C G35C U43C | 0.01
152 | A6G C18A G35A | 0.04
153 | G1U A6G C8U | 0.12
154 | C3A G7U U20A G36U | 0.08
155 | C3G C8U U34G | 0.23
156 | A12U C31U U32G G36U | 0.01
157 | A6C C8G U9A A12U G36A C42G | 0.02
158 | G22U A26U G27C | 0.47
159 | G2A G21U U32A U38G C46A | 0.01
160 | G1A U20A G27C | 1.93
161 | U28A C37G U43C | 0.03
162 | G2C G19U C37A | 0.02
163 | C3U A24C C37G | 0.04
164 | A6G U20G C37A | 0.02
165 | A24G A25U C31U U34A | 0.03
166 | G1A C10G C31G | 0.09
167 | G21A A25G G35A | 0.09

Source: the RNAGym collection of RNA variant scans (doi:10.7554/elife.90254)
